Results reported in US11306122B2, “Compositions and methods of inhibiting the binding of plasma IgG autoantibodies to serotonin 2A receptor” (United States Government As Represented By The Department …, priority 2019, dated 2022).
Part of at least one peptide drawing is inferred or uncertain, most often the ends. Ends that are not written are not given here.

Experiments:
[1] = Observation of side effects and sedation in ZDF rats; type: in vivo, Zucker diabetic fatty (ZDF) rat
Method: Normally these rats will feed nearly continuously when given the opportunity. This sedating effect was reproducible following a second IP injection of 1 mg of the SEQ ID NO: 2 in each of the 3 ZDR rats. […] Serotonin plays a major role in wakefulness and arousal in the nervous system. It is possible that the administration of SEQ ID NO: 2 blocks the action of the neurotransmitter serotonin at multiple sites in the periphery and in the central nervous system, inducing sleep via antagonism of serotonin's role in wakefulness/arousal, independent of the pronounced blood pressure-lowering effect.

[2] = Blood glucose in ZDF rats; type: in vivo, Zucker diabetic fatty (ZDF) rat; details: single 2 mg/kg IP injection
[3] = tested on: mouse N2A neuroblastoma cells; experiment: N2A cell survival: accelerated cell loss induced by diabetic pathologies' IgG autoantibodies; type: cell-based
[4] = Tail cuff blood pressure in Zucker lean rats; type: in vivo, Zucker lean rat; details: for diastolic blood pressure 30 minutes after Injection / systolic blood pressure 30 minutes after Injection: single IP 2 mg/kg
[5] = tested on: mouse N2A neuroblastoma cells; experiment: Acute N2A neurite retraction induced by diabetic pathologies' IgG autoantibodies; type: cell-based
Method: Methods: Plasma or serum from fifty-six older adults with (n=49) or without (n=7) type 2 diabetes was subjected to Protein-A affinity chromatography to obtain IgG autoantibodies. Binding to a synthetic 18-meric linear synthetic peptide (SEQ ID NO: 1) corresponding to the second extracellular loop of the 5-hydroxytryptamine 2A receptor was tested in a 1/40th or higher dilution of the protein-A eluates. Mean acute neurite retraction (5 minutes) or cell survival (16-24 hours) was determined in mouse N2A neuroblastoma cells incubated with IgG autoantibodies in the presence or absence of three short, linear overlapping peptides comprising the second extracellular loop of the human 5-hydroxytryptamine 2A receptor (SEQ ID NOs: 2, 3 and 4).
N2A Acute Neurite Retraction assay. Acute neurite retraction assay was performed as described in Hu G, et al. Diabetes Care 2007; 30(4): 842-847.
Epitope mapping of region within 5-HT2A receptor, linear synthetic 5-HT2A receptor peptide targeted by autoantibodies. Next an epitope analysis was performed to determine the subregion within the 5-HT2A receptor second extracellular domain that binds to the type 2 diabetes pathologies' autoantibodies. Three overlapping short peptides were synthesized (SEQ ID NOs: 2, 3, and 4). N2a cells expressing neurites were pre-incubated with each of the peptides separately (for 5 minutes) prior to the addition of Patient 1, […] hypertension IgG autoantibodies to determine which of the three peptides could compete for binding to the test diabetic pathologies' autoantibodies causing inhibition of IgG autoantibody-induced neurite retraction.
The indicated concentration of the Q . . . […] Acute N2A neurite retraction was assessed after 5 minutes.

[6] = Body weight change in Zucker lean rats; type: in vivo, Zucker lean rat
[7] = Body weight change in Zucker diabetic fatty rats; type: in vivo, Zucker diabetic fatty (ZDF) rat; details: for Percent increase in body weight per ~10-day period: Week 11-12.5, saline-treated 11.75%, untreated 9.5%; for Percent increase in body weight per ~10-day period / Percent increase in body weight per 26-day period: Peptide-treated (N = 4); for Percent increase in body weight per 26-day period: Week 11-14.5, saline-treated 20%
[8] = Planned: memory and depression symptoms tasks in ZDF rats around lateral percussive TBI; type: in vivo, Zucker diabetic fatty (ZDF) rat; details: decoy peptide 1-2 mg/kg s.c. prior to lateral percussive TBI; planned experiment
[9] = Tail cuff blood pressure in Zucker diabetic fatty rats; type: in vivo, Zucker diabetic fatty (ZDF) rat
[10] = Morris water maze spatial memory after TBI or sham injury; type: in vivo, Zucker lean and Zucker diabetic fatty rats; details: alternate daily IP 2 mg/kg for 1 week before and 1-week after injury; distance in choice phase

Which results are given for SCLLADDN [Peptide 2]?
sedating effect following a second IP injection ([1]; 1 mg IP in each of the 3 rats): reproducible; time after injection at which rats fell asleep and appeared sedate and calm ([1]; three ZDF rats, initial 1 mg IP injection): ≤ 30 min; acute lowering of blood glucose ([2]; ZDF peptide-treated rats, 3 hours after): ~10%; acute increase in blood glucose ([2]; ZDF saline-treated rats): ~11%; neuroprotection against accelerated neuron loss, Patient 1 and four other patients' IgG ([3]; 20 μg/mL, 16 hours at 37 degrees C.): substantial neuroprotection; effect on accelerated N2a neuron loss induced by Patient 1 IgG ([3]; 20 μg/mL, one one-hundredth dilution of Patient 1 IgG): completely prevented; percent of basal N2A neuroblastoma cell survival, Pt IgG + Peptide 2 ([3]; 1/100th dilution of Pt 1 DM refractory HTN IgG, 16 hours, 20 μg/mL, IgG alone 57 + 3%): 100 + 4%; neuroprotective effect after prolonged incubation in serum ([3]; 16 hours at 37 degrees C. in 10% fetal calf serum): retained its neuroprotective effect; N2A cell survival, IgG+Peptide 2 ([3]; N = 5 patients (stroke, PD, dementia, MDD), 16 hours, 20 μg/mL, IgG alone 64 + 21%): 94 + 11%; diastolic blood pressure 30 minutes after Injection ([4]; Zucker Lean #1, before 72, NS): 78; systolic blood pressure 30 minutes after Injection ([4]; Zucker Lean #1, before 130, NS): 120; diastolic blood pressure 30 minutes after Injection ([4]; Zucker Lean #2, before 80, NS): 83; systolic blood pressure 30 minutes after Injection ([4]; Zucker Lean #2, before 124, NS): 123; diastolic blood pressure 30 minutes after Injection ([4]; Zucker Lean #3, before 85, NS): 98; systolic blood pressure 30 minutes after Injection ([4]; Zucker Lean #3, before 130, NS): 132; diastolic blood pressure 30 minutes after Injection ([4]; Zucker Lean #4 (elevated baseline), before 102, P <0.05): 91; systolic blood pressure 30 minutes after Injection ([4]; Zucker Lean #4 (elevated baseline), before 149, P <0.05): 130; effect on normal baseline blood pressure, lean Zucker rats #1-#3 ([4]; single IP injection of 2 mg/kg): not significantly affected; effect on elevated baseline blood pressure, Zucker lean rat #4 ([4]; single IP injection of 2 mg/kg, both systolic and diastolic): significantly reduced; prevention of IgG autoantibody-induced acute neurite withdrawal ([5]; 20 μg/mL, 50-100 nM pathologies' IgG autoantibodies, ten of ten patients): 99%; Acute N2a neurite retraction in IgG autoantibodies (with Peptide 2) ([5]; N = 10 patients: dementia, PD, stroke, schizophrenia, without Peptide 2: 33% + 8%): 0.25% + 0.75%; Mean acute N2a neurite retraction (%) ([5]; Pt 1 IgG one-fortieth dilution + 20 μg/mL peptide, 5 minutes, IgG alone 100 + 0%): 5 ± 5%; effect on Patient 1 IgG autoantibody-induced N2A neurite retraction ([5]; short peptides at 20 μg/mL, pre-incubated 5 minutes, Q..N-18 dose series): nearly completely prevented; percent change in body weight over 26 days, peptide vs saline [6]: no significant difference; body weight gained over 26 days ([6]; same schedule, saline group the same): approximately 16%; increase in body weight, 7-day ON treatment ([7]; ZDF rats age 15.5-16.5 weeks, alternate daily 2 mg/kg, saline group 5%): 3%; Percent increase in body weight per ~10-day period ([7]; ZDF rats, listed as Peptide): 5.75%; Percent increase in body weight per ~10-day period ([7]; ZDF rats, listed as peptide): 5.75%; Percent increase in body weight per 26-day period ([7]; ZDF rats, listed as Peptide): 7.65%; Percent increase in body weight per 26-day period ([7]; ZDF rats, listed as peptide): 7.65%; trajectory of progressive weight gain over 26 days ([7]; ZDF rats, 2 mg/kg IP every other day for 7 days on two occasions): flattening of the curve; reduction in percent weight gain ON vs OFF treatment ([7]; ZDF rats, 3% vs 7.5%): 2.5 fold; difference in body weight gain OFF vs ON therapy ([7]; ZDF rats, 7.5% vs about 3%): ~250%; increase in body weight over a 10-day observation period vs saline ([7]; ZDF rats, alternate daily IP 2 mg/kg for 7 days, P=0.005): significantly smaller; body weight gained over the entire 26-day observation period ([7]; ZDF rats, two 7-day dosing intervals, 2 mg/kg IP, saline gained 20%, P=0.17 as printed): approximately 7%; increase in body weight, 7-day OFF period ([7]; peptide-treated ZDF group, age 14.5-15.5 weeks, no injections, saline group 4.25%): 7.5%; expected outcome on memory and depression symptoms tasks, pre-treated vs not treated ZDF rats [8]: statistically significant group differences; duration of blood pressure-lowering effect ([9]; 3 11-week-old ZDF rats, 2 mg/kg IP): ≥ 8 h; DIASTOLIC blood pressure, 11-week-old ZDF rats ([9]; 3 rats, 8 hours post-injection, 2 mg/kg IP, before 113 + 22): 80 + 7 (N = 8).; SYSTOLIC blood pressure, 11-week-old ZDF rats ([9]; 3 rats, 8 hours post-injection, 2 mg/kg IP, before 171 ± 25): 80 ± 7 (N = 8).; Percent lowering of diastolic blood pressure after peptide ([9]; 5.5-month-old ZDF rats, (112-65)/112): 42%; Percent lowering of mean arterial pressure ([9]; 5.5-month-old ZDF rats, (125-75)/125): 40%; Percent lowering of systolic blood pressure after peptide ([9]; 5.5-month-old ZDF rats, (161-95)/161): 41%; Percent lowering of mean arterial pressure ([9]; 11-week-old ZDF rats, 15 minutes after 2 mg/kg IP, (134-106)/134): 21%; Percent lowering of diastolic blood pressure after peptide ([9]; 11-week-old ZDF rats, (118-91)/118): 23%; Percent lowering of systolic blood pressure after peptide ([9]; 11-week-old ZDF rats, (167-135)/167): 19%; DIASTOLIC blood pressure, 11-week-old ZDF rats ([9]; N = 5 rats, 15 mins post-injection, 2 mg/kg IP, before 118 ± 22): 91 ± 15 (N = 17); SYSTOLIC blood pressure, 11-week-old ZDF rats ([9]; N = 5 rats, 15 mins post-injection, 2 mg/kg IP, before 167 ± 24): 135 ± 18 (N = 17); DIASTOLIC blood pressure ([9]; ZDF1, 15 mins post-injection, 2 mg/kg IP, before 135 ± 4): 69 ± 12 (N = 5); SYSTOLIC blood pressure ([9]; ZDF1, 15 mins post-injection, 2 mg/kg IP, before 158 ± 5): 109 ± 5 (N = 5); DIASTOLIC blood pressure ([9]; ZDF1, 45 mins post-injection, 2 mg/kg IP, before 135 ± 4): 80 ± 7 (N = 5).; SYSTOLIC blood pressure ([9]; ZDF1, 45 mins-post injection, 2 mg/kg IP, before 58 ± 5 (so in the source)): 104 ± 14 (N = 5); DIASTOLIC blood pressure ([9]; ZDF1, 90 mins post-injection, 2 mg/kg IP, before 135 ± 4): 69 ± 5 (N = 4); SYSTOLIC blood pressure ([9]; ZDF1, 90 mins-post injection, 2 mg/kg IP, before 158 ± 5): 119 ± 8 (N = 3); DIASTOLIC blood pressure ([9]; ZDF1, 240 mins post-injection, 2 mg/kg IP, before 135 ± 4): 45 ± 7 (N = 3); SYSTOLIC blood pressure ([9]; ZDF1, 240 mins post-injection, 2 mg/kg IP, before 158 ± 5): 97 ± 13 (N = 3); DIASTOLIC blood pressure ([9]; ZDF2, 15 mins post-injection, 2 mg/kg IP, before 129 ± 5): 84 ± 6 (N = 2); SYSTOLIC blood pressure ([9]; ZDF2, 15 mins post-injection, 2 mg/kg IP, before 168 ± 9): 128 ± 8 (N = 2); DIASTOLIC blood pressure ([9]; ZDF2, 45 mins post-injection, 2 mg/kg IP, before 129 ± 5): 74 ± 17 (N = 3); SYSTOLIC blood pressure ([9]; ZDF2, 45 mins post-injection, 2 mg/kg IP, before 168 ± 9): 99 ± 16 (N = 3).; DIASTOLIC blood pressure ([9]; ZDF3, 15 mins post-injection, 2 mg/kg IP, before 132 ± 1): 104 ± 12 (N = 3); SYSTOLIC blood pressure ([9]; ZDF3, 15 mins post-injection, 2 mg/kg IP, before 174 ± 6): 146 ± 4 (N = 2); aggregate diastolic blood pressure 15-40 minutes after injection ([9]; ZDF n = 1-3, before 112): 65; aggregate systolic blood pressure 15-40 minutes after injection ([9]; ZDF n = 1-3, before 161): 95; aggregate diastolic blood pressure 15 minutes after injection, 11-week old ZDF rats ([9]; n = 5, before 118): 91; aggregate systolic blood pressure 15 minutes after injection, 11-week old ZDF rats ([9]; n = 5, before 167): 135; duration of systolic and diastolic blood pressure-lowering ([9]; single 2 mg/kg intraperitoneal injection, 5.5-month-old ZDF rats): lasted for at least four hours or longer; diastolic blood pressure, Day 0, post-injection ([9]; three ZDF rats 5.5 months old, 1 mg intraperitoneal, 15-40 minutes after, Day 0 pre-injection 112 ± 2): 65 ± 11 mm Hg; systolic blood pressure, Day 0, post-injection ([9]; three ZDF rats 5.5 months old, 1 mg intraperitoneal, 15-40 minutes after, Day 0 pre-injection 161 ± 21): 95 ± 13 mm Hg; Morris water maze performance, TBI rats [10]: not in the TBI rats; Morris water maze performance, sham injury rats [10]: improved performance
